According to the supplement of paper PMC3334620:
The full ranking holds about 33,000 sequences; the median of “E-score (-0.5 to 0.5)” is about -0.017, and the highest 2% start at about 0.3. The list shows a part of the results.

Target: T1, Sut1 (UniProt P53032)
T1 sequence: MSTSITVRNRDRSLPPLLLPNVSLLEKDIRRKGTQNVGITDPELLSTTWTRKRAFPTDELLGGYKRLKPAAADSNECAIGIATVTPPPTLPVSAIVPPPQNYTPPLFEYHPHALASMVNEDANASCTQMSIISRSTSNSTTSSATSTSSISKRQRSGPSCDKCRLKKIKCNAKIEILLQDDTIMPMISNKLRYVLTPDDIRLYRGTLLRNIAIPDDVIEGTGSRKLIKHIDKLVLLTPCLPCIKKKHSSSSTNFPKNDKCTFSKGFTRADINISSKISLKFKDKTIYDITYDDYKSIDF
Experiment: PBM E-score (8-mer binding enrichment) (E-score (-0.5 to 0.5)); higher = stronger / more preferred TF binding; most listed sequences are background and not binding sites
Conditions: protein concentration: 200 nM; construct: GST-full length
How it was run: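 Universal all-10-mer Agilent arrays, fresh or stripped once, were converted to double-stranded form by primer extension. GST-tagged yeast transcription factors from PURExpress in vitro transcription/translation, full-length or DNA-binding domain only, were applied at about 100-200 nM and detected with fluorescent anti-GST. After masliner normalisation, the Universal PBM Analysis Suite scored each ungapped eight-base word together with its reverse complement by E-score.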

Sequence	PBM E-score
AACTAGGG	-0.0975
AACCTAAG	-0.0511
CAGAAGGA	-0.354
GTCCATGA	-0.141
GCGCGACC	-0.0834
AACAGATG	-0.113
TTCTTAAA	0.0894
CAGTTAAA	0.182
AGCCCTCG	-0.207
CCGTATGC	-0.0603
CATGTGAG	-0.253
GCGATAAC	0.12
GGAAATCC	0.0204
GACGACGA	0.052
AAAAACCA	0.231
CGAACTAA	0.182
ACGGACTG	0.22
CGCCTGCA	-0.238
AAAGACAT	-0.0344
TACAAATA	0.303
ATACGTCG	-0.0997
CGACCATA	0.00102
AGCCCGCT	-0.241
AGACTGAG	-0.128
GGTATTAA	0.0491

Sequence	PBM E-score
AGGGGCAT	-0.318
AAAGTTAC	0.107
CATTTGTA	0.179
CGGACCAC	0.165
AAAGGATC	0.0741
CGTCATCC	-0.178
CCTGATCA	-0.239
ACGGTCAA	0.0456
CCGATTCG	0.163
CCTGGGAA	-0.229
ATAACCCG	-0.0563
AACGATAA	0.135
CATTACGA	-0.0227
GCACAAAA	0.224
GACTGTAC	-0.0623
CTCGCAAA	-0.171
GTCCCTAA	0.0506
ACCCTCTC	-0.124
CACCATCG	-0.434
AGGACGTC	-0.0423
AGCAGAGC	-0.288
AGCATCTC	0.131
CCTCTAAA	-0.248
ATAAAGGG	0.0706
GCCTTGCA	-0.23

Sequence	PBM E-score
ACAATGCC	0.0523
AATCACCT	0.052
AGAGCGGA	0.318
GTTTAGGA	-0.07
ATTGGCGA	-0.213
CTTGGATA	0.126
ACCAGTAG	-0.0953
AAGGGTCT	-0.114
AGTGTGAG	-0.023
CTGTACGA	0.124
CGCCACCG	-0.193
CAAATCCA	0.0214
ATCTCATC	0.00844
AGCCTCAT	-0.165
AAGGACTT	-0.00217
CATGGTTA	0.059
AAACTCTC	0.142
CGAACCCA	-0.062
GAGAAGCC	0.0597
TGCCCGAA	0.00332
GAAGTCGC	0.0503
CCACGGAA	0.178
GTATCCGA	-0.0454
ACGCCTTA	-0.303
CCAATAAG	-0.159

Sequence	PBM E-score
GCTGTGCC	-0.169
GAGCTACC	-0.0922
CATTGACC	-0.0262
ACTTCCAT	0.0535
GGGTCCTA	-0.134
GGTCGCAC	-0.197
ATTTTCCA	0.121
CGACAACA	-0.00636
CTTCATAA	0.131
AATACCGC	-0.0155
CCACTAGG	-0.293
CATATAAG	0.162
ACCGTATC	-0.0106
AGGCTAAG	-0.184
CGATTACC	-0.0591
TCAGAGAA	-0.165
CTTCGCTA	-0.0699
AGACAAAT	0.151
CTTCGGTA	0.0563
AGTTCGAA	0.11
CTCTCAAC	0.0279
CACTGACC	-0.0727
GTAACAAA	0.243
GCCTCTTA	0.0376
ACCTCACG	-0.214

Sequence	PBM E-score
GGTATCGA	-0.0556
CTAATGCC	-0.133
AACACAGG	-0.0723
AGAGGATG	0.0295
CGTGAACC	-0.0352
AGCGCACG	-0.0739
ACAGTAGG	-0.19
AGACTATC	-0.0367
ATTCAGTG	0.0284
AGGCGTGC	-0.131
TAGGGAGA	0.00032
CAGCCGAC	-0.187
ATTAGTTA	0.267
AGACCTGA	0.0487
CACGTCCA	-0.357
TCCTTAGA	-0.103
GCCTCTCC	-0.182
AATATTAG	0.192
GTCATCAC	-0.235
ATCGCGCA	-0.25
GAACACAA	-0.0156
AAGCCATC	0.0153
ATGCTGAA	0.012
ATCCCCTG	-0.265
ACTACAGA	0.17

Sequence	PBM E-score
ACTGCTTG	-0.0756
TGATATAA	0.222
CCGGCGAG	-0.0596
GAGGGAGC	-0.197
AGGTTTAA	0.149
AAAACGAG	0.0435
CGTCAGTA	-0.167
AAGTAGTA	0.0858
ATACTCCC	0.108
CGCGAATC	-0.0333
ACCAAGAA	0.0509
ATTTAGCA	0.108
TAGCAGAA	0.0384
AGGATGAG	-0.166
TTCGAAAA	0.198
AGGGAGAC	-0.0822
CCTCTGGC	-0.22
ACGTGGAA	-0.0834
AGCTTGTG	-0.156
GTTGCCCA	-0.131
GTGCTACA	-0.0297
CTTGGCCC	-0.318
GGATCCCC	-0.0631
CATCTGCA	-0.115
AGAATCAA	0.102

Sequence	PBM E-score
GTAATCCA	0.13
AACGGAAG	0.123
CCGTTCAA	0.232
CACGCTAG	-0.198
ACTCCATG	-0.0608
CCGAAACC	0.0583
AACTCATC	0.135
GGGCTAAC	-0.225
CGGCGTGC	0.112
GCAGAGCC	-0.254
CTATTGCC	-0.11
AACACTGA	0.0217
AAGCGGCG	-0.04
GAGTGGGC	-0.103
AATTCTGC	-0.0117
CACAACCA	0.0851
TACATCAA	0.107
CCGACTCG	0.0683
AGATTTGG	0.052
GCCTGTAC	0.0162
CACTTCGC	-0.203
CATGAAAA	0.0814
